# From PubChem BioAssay AID1476 (National Center for Advancing Translational Sciences (NCATS), 2009)
# Among all 200,000 compounds or so, about 4,500 (2.2%) were called active. Inconclusive means that the source gave no clear call. Such entries were picked first, then a sample of the others. Calls follow the shape of the dose curve; as a rule, active = well fitted inhibition curve with a large enough effect; inconclusive = small, poorly fitted or top-dose-only effect, or effect the other way; inactive = flat fitted curve, though single readings scatter. A potency beside an inconclusive call is a rough fit, not a confirmed value.
# Target: Cruzipain (Trypanosoma cruzi) (UniProt P25779)
# Sequence of UniProt P25779 (P25779 whole entry, looked up): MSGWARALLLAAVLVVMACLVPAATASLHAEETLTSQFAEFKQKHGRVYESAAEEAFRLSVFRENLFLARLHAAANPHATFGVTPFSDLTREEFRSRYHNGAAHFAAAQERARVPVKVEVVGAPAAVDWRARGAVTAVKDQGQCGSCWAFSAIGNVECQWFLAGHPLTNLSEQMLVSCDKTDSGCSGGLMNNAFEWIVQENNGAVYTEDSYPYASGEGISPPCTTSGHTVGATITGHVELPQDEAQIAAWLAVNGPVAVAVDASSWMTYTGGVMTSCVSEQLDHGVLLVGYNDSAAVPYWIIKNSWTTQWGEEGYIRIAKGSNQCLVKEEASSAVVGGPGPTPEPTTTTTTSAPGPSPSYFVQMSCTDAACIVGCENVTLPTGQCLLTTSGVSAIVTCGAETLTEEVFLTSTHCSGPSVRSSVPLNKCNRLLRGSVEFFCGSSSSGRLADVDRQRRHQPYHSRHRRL
# Assay: qHTS Assay for Promiscuous and Specific Inhibitors of Cruzain (without detergent); also: nearly all actives have a fitted effect of over 40% in size;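 as to max response, negative = inhibition: plate controls were enzyme without inhibitor for no effect and buffer without enzyme for full effect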
# Conditions: purified cruzain, Z-FR-AMC fluorescence, no detergent
# Outline: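 Purified cruzain at 1.5 nM, pre-incubated 15 min with compound at room temperature in 100 mM sodium acetate pH 5.5, 5 mM DTT, 0.00005% Triton X-100. Reaction started with 2 uM Z-FR-AMC; AMC fluorescence increase over 60 s gives rate.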
# Potency is read from the fitted curve at half-maximal effect; tags tell the direction and shape of the fitted curve.
SMILES,Potency,"max response, negative = inhibition"
N#CNC(=Nc1ccc(F)cc1)SCc1ccccc1,active: 25.1 µM,–
CCC(Sc1ccc(Cl)cc1)C(=O)Nc1nnc(-c2cccc([N+](=O)[O-])c2)s1 (configuration not stated),"inconclusive: 39.8 µM [inhibitor, single point]",–
Cn1c(C(=O)NC2CCCCC2)cc2c(=O)n(C)c3ccccc3c21,"inconclusive: 39.8 µM [activator, single point]",–
COC(=O)c1ccc(NC(=O)C(=O)NCCc2sc(-c3cccc(F)c3)nc2C)cc1,–,inactive: -9.44%
Cc1cc(C)n(CC(O)CN2c3ccccc3Sc3ccccc32)n1 (configuration not stated),"inconclusive: 25.1 µM [activator, single point]",–
CCOC(=O)N1CCC(NC(=O)Cn2ncc3c2-c2cc(C)ccc2OC3)CC1,"inconclusive: 31.6 µM [activator, single point]",–
Cc1oc(/N=C/c2ccc(Cl)cc2Cl)c(C#N)c1C,–,inactive: -6.45%
CC(=O)Nc1cccc(Oc2ncnc3scc(-c4ccc(C)cc4)c23)c1,"inconclusive: 25.1 µM [activator, single point]",–
Cc1cccc(C)c1NC(=O)CSc1nc(C)c(CC(=O)c2ccc(Br)cc2)c(C)c1C#N,active: 31.6 µM,–
O=C(/C=C/c1ccc(Cl)c([N+](=O)[O-])c1)Nc1ccc(N2CCCC2)c(Cl)c1,active: 20 µM,–
CCc1ccc(NC(=O)c2cc3nc(-c4ccc(C)cc4)cc(C(F)(F)F)n3n2)cc1,"inconclusive: 0.158 µM [inhibitor, single point]",–
O=C(Cn1ccc2cc(S(=O)(=O)N3CCCCC3)ccc21)NCCc1ccc(Cl)cc1,"inconclusive: 20 µM [inhibitor, single point]",–
COc1ccc(C2=NCC(=O)N(CC(=O)NCc3ccco3)c3sc4c(c32)CCCC4)cc1OC,"inconclusive: 39.8 µM [activator, single point]",–
Cc1cccc2cc(C(c3nnnn3Cc3ccccc3)N3CCCc4ccccc43)c(=O)[nH]c12 (configuration not stated),"inconclusive: 31.6 µM [inhibitor, single point]",–
COc1ccc(CCNC(=O)CN(c2cc(C(F)(F)F)ccc2Cl)S(C)(=O)=O)cc1,–,inactive: -5.5%
CCOC(=O)N1CCN(Cc2nc3c(c(=O)n(C)c(=O)n3C)n2CCC(C)C)CC1,"inconclusive: 25.1 µM [activator, single point]",–
O=C(CSc1nnc(-c2cccs2)n1-c1ccccc1)Nc1ccccc1,"inconclusive: 25.1 µM [inhibitor, single point]",–
COCCCn1c(N)c(C(=O)NCCC(C)C)c2nc3ccccc3nc21,"inconclusive: 10 µM [activator, partial curve]",–
Cc1ccc(-c2ccc(=O)n(CC(=O)N3CCN(c4cccc(C)c4)C(C)C3)n2)cc1 (configuration not stated),"inconclusive: 39.8 µM [activator, single point]",–
COc1ccc(N(CC(=O)N/N=C/c2ccc(OC3CSC3)cc2)S(=O)(=O)c2ccccc2)cc1,"inconclusive: 39.8 µM [inhibitor, single point]",–
CC(NC(=O)c1ccc(Nc2nc3ccccc3n3nnnc23)cc1)c1ccccc1 (configuration not stated),–,inactive: -4.05%

SMILES,Potency,"max response, negative = inhibition"
O=C1CC(SC(=NCc2ccc3c(c2)OCO3)Nc2ccccc2)C(=O)N1c1ccccc1 (configuration not stated),"inconclusive: 39.8 µM [inhibitor, single point]",–
O=C(CS(=O)(=O)c1cccc2nsnc12)NCc1ccc(Cl)cc1,–,inactive: -8.36%
COc1cc(-c2nnc(-c3ccco3)o2)ccc1OCc1ccccc1,"inconclusive: 39.8 µM [activator, single point]",–
COc1cccc(-c2nnc3sc(-c4ccc(C)cc4)nn23)c1,"inconclusive: 39.8 µM [activator, single point]",–
COc1ccc(/C=N/Nc2ncnc(Cl)c2N)cc1OC,–,inactive: 3.15%
CCCc1ccc(OCc2ccc(C(=O)N/N=C/c3cccc([N+](=O)[O-])c3)o2)c(OC)c1,active: 6.31 µM,–
CCC1CN(C(=O)N2CCC(C(=O)Nc3cc(C)ccc3C)CC2)c2ccccc2O1 (configuration not stated),–,inactive: 4.73%
CCN(Cc1ccccc1)Cc1c(O)ccc2c(=O)c(-c3ccccc3)c(C(F)(F)F)oc12,–,inactive: 18.9%
Cc1ccc2c(c1)nnn2C1CCN(CC(=O)Nc2ccccc2N2CCOCC2)CC1,"inconclusive: 20 µM [activator, single point]",–
CSc1nc2ccc3nc(NC(=O)c4ccc(Cl)s4)sc3c2s1,"inconclusive: 20 µM [inhibitor, single point]",–
COc1ccc(C(=O)Nc2cc(C(C)C)c(O)c(S(=O)(=O)c3ccc(Cl)cc3)c2C)cc1,"inconclusive: 39.8 µM [inhibitor, single point]",–
O=C1CC(c2ccc(S(=O)(=O)Nc3cc(C(F)(F)F)cc(C(F)(F)F)c3)cc2)CN1 (configuration not stated),"inconclusive: 39.8 µM [activator, single point]",–
CN(CC(=O)Nc1nc2ccccc2s1)S(=O)(=O)c1ccc(Br)cc1,–,inactive: -12%
CCN(CC)c1ccc(CN(C(=O)Cc2coc3ccc(C)cc23)C2CCS(=O)(=O)C2)cc1 (configuration not stated),–,inactive: -5.7%
COc1ccc(-n2c(Cc3cccn3C)nnc2SCC(=O)Nc2ccc(F)cc2)cc1,–,inactive: 29.8%
CCOc1cccc(CC(=O)N2CCc3c([nH]c4ccccc34)C2c2ccccc2)c1OCC (configuration not stated),"inconclusive: 20 µM [inhibitor, single point]",–
CCn1nc(C)c2c(-c3ccccc3)cc(=O)n(C(C)C(=O)NCc3cccc(OC)c3)c21 (configuration not stated),"inconclusive: 31.6 µM [activator, single point]",–
c1ccc(Nc2nc(-c3ccc4c(c3)OCO4)nc3ccccc23)cc1,"inconclusive: 39.8 µM [inhibitor, single point]",–
O=C(CC1SC(=Nc2ccccc2)N(CCc2c[nH]c3ccccc23)C1=O)Nc1ccccc1F (configuration not stated),"inconclusive: 15.8 µM [inhibitor, partial curve]",–
COc1cc(OC)cc(C(=O)NCC(=O)OCC(=O)c2cc(OC)ccc2OC)c1,–,inactive: 0.0015%
COc1cc(NS(=O)(=O)c2ccc(Nc3nc(-c4cccc([N+](=O)[O-])c4)cs3)cc2)nc(OC)n1,active: 31.6 µM,–
